# Data published in the supplement of paper PMC12217912.
# Some of the results follow. Sequences were assembled here from the parent chain. Inactive controls read about 0.05.
# B1: TEV protease; numbered along this chain (parent)
# chain: MGESLFKGPRDYNPISSSICHLTNESDGHTTSLYGIGFGPFIITNKHLFRRNNGTLVVQSLHGVFKVKDTTTLQQHLVDGRDMIIIRMPKDFPPFPQKLKFREPQREERICLVTTNFQTKSMSSMVSDTSCTFPSGDGIFWKHWIQTKDGQCGSPLVSTRDGFIVGIHSASNFTNTNNYFTSVPKNFMELLTNQEAQQWVSGWRLNADSVLWGGHKVFMVKPEEPFQPVKEATQL
# Variants of: B1
# Assay: raw area under fraction-flipped curve 0-4 h after induction (AUC4h, not background-subtracted), DNA-recorder readout of cleavage of the substrate (dimensionless); higher = more cleavage of the substrate by the protease variant
# Conditions: temperature: 34 °C; time window: 0-4 h after rhamnose induction
# 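Note: Bxb1 expression induced with 0.2% (w/v) L-rhamnose at OD600 near 0.5, cultures sampled hourly, flipped fraction per protease–substrate barcode pair counted by paired-end Illumina sequencing.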
Variant,area with substrate ENIYFQS,area with substrate ENPYFQS,area with substrate ENQYFQS,area with substrate ENSYFQS,area with substrate ENVYFQS,area with substrate ENKYFQS,area with substrate ENRYFQS,area with substrate ENTYFQS,area with substrate ENNYFQS,area with substrate ENWYFQS
MGESLFKGPRDYNPISSSICHLTNESDGHTTSLYGIGFGPFIITNKHLFRRNNGTLVVQSLHGVFKVKDTTTLQQHLVDGRDMIIIRMPKDFPPFPQKLKFREPQREERICLVTTNFQTKSMSSMVSDTSCTFPSGDGIFWKHWIQTKDGQCGSPLVSTRDGPIVGIHSASNFTNTNNYFTSVPKNFMELLTNQEAQQWVSGWRLNADSVLWGGHKVFMVKPEEPFQPVKEATQL [F163P],0.039,0.0892,0.0621,0.0479,0.0468,–,–,–,–,–
MGESLFKGPRDYNPISSSICHLTNESDGHTTSLYGIGFGPFIITNKHLFRRNNGTLVVQSLHGVFKVKDTTTLQQHLVDGRDMIIIRMPKDFPPFPQKLKFREPQREERICLVTTNFQTKSMSSMVSDTSCTFPSGDGIFWKHWIQTKDGQCGSPLVSTRDGFIVGIHKASNFTNTNNYFTSVPKNFMELLTNQEAQQWVSGWRLNADSVLWGGHKVFMVKPEEPFQPVKEATQL [S169K],0.0438,–,–,0.0638,0.0277,–,–,–,–,–
MGESLFKGPRDYNPISSSICHLTNESDGHTTSLYGIGFGPFIITNKHLFRRNNGTLVVQSLHGVFKVKDTTTLQQHLVDGRDMIIIRMPKDFPPFPQKLKFREPQREERICLVTTNFQTKSMSSMVSDTSCTFPSGDGIFWKHWIQTKDGQCGSPLVSTRDGFIVGIHSASNFTNTNNYFTSVPKNFMELLTNQEAQQWVSGWRLNADSVLWGWHKVFMVKPEEPFQPVKEATQL [G214W],0.0936,–,–,–,–,0.0747,0.0645,–,–,–
MGESLFKGPRDYNPISSSICHLTNESDGHTTSLYGIGFGPFIITNKHLFRRNNGTLVVQSLHGVFKVKDTTTLQQHLVDGRDMIIIRMPKDFPPFPQKLKFREPQREERICLVTTNFQTKSMSSMVSDTSCTFPSGDGIFWKHWIQTKDGQCGSPLVSTRDGFIVGIHSASNFTNTNNYFTSVPKNFMELLTNQEAQQWVSGWRLNADSVLWGGIKVFMVKPEEPFQPVKEATQL [H215I],0.0732,0.0605,0.0682,–,–,–,–,–,–,–
MGESLFKGPRDYNPISSSICHLTNESDGHTTSLYGIGFGPFIITNKHLFRRNNGTLVVQSLHGVFKVKDTTTLQQHLVDGRDMIIIRMPKDFPPFPQKLKFREPQREERICLVTTNFQTKSMSSMVSDTSCTFPSGDGIFWKHWIQTKDGQCGSPLVSTRDGFIVGIHSASNFTNTNNYFTSVPKNFMELLTNQEAQQWVSGWRLNADSVLWGGHKVFMVKPEEPFAPVKEATQL [Q227A],0.101,–,–,–,–,0.0723,–,–,–,–
MGESLFKGPRDYNPISSSICHLTNESDGHTTSLYGIGFGPFIITNKHLFRRNNGTLVVQSLHGVFKVKDTTTLQQHLVDGRDMIIIRMPKDFPPFPQKLKFREPQREERICLVTTNFQCKSMSSMVSDTSCTFPSGDGIFWKHWIQTKDGQCGSPLVSTRDGFIVGIHSASNFTNTNNYFTSVPKNFMELLTNQEAQQWVSGWRLNADSVLWGGHKVFMVKPEEPFQPVKEATQL [T119C],–,–,–,0.0709,–,0.0647,0.0479,–,–,–
MGESLFKGPRDYNPISSSICHLTNESDGHTTSLYGIGFGPFIITNKHLFRRNNGTLVVQSLHGVFKVKDTTTLQQHLVDGRDMIIIRMPKDFPPFPQKLKFREPQREERICLVTTNFQTKSMSSMVSDTSCTFPSGDGIFWKHWIQTKDGQCGSPLVSTRDGFIVGIHSFSNFTNTNNYFTSVPKNFMELLTNQEAQQWVSGWRLNADSVLWGGHKVFMVKPEEPFQPVKEATQL [A170F],–,–,0.0545,–,–,0.0512,–,0.0386,–,–
MGESLFKGPRDYNPISSSICHLTNESDGHTTSLYGIGFGPFIITNKHLFRRNNGTLVVQSLHGVFKVKDTTTLQQHLVEGRDMIIIRMPKDFPPFPQKLKFREPQREERICLVTTNFQTKSMSSMVSDTSCTFPSGDGIFWKHWIQTKDGQCGSPLVSTRDGFIVGIHSASNFTNTNNYFTSVPKNFMELLTNQEAQQWVSGWRLNADSVLWGGHKVFMVKPEEPFQPVKEATQL [D79E],–,–,0.0577,0.0451,0.0751,–,–,0.0722,0.0592,–
MGESLFKGPRDYNPISSSICHLTNESDGHTTSLYGIGFGPFIITNKHLFRRNNGTLVVQSLHGVFKVKDTTTLQQHLVDGRDMIIIRMPKDFKPFPQKLKFREPQREERICLVTTNFQTKSMSSMVSDTSCTFPSGDGIFWKHWIQTKDGQCGSPLVSTRDGFIVGIHSASNFTNTNNYFTSVPKNFMELLTNQEAQQWVSGWRLNADSVLWGGHKVFMVKPEEPFQPVKEATQL [P93K],–,0.0479,–,–,–,–,–,0.0507,0.0398,–
MGESLFKGPRDYNPISSSICHLTNESDGHTTSLYGIGFGPFIITNKHLFRRNNGTLVVQSLHGVFKVKDTTTLQQHLVDGRDMIIIRMPKDFPPFPQKLKFREPQREERICLVTTNFQTKSMSSMVSDTSCTFPSGDGIFWKHWIQTKDGQCGSPLVSTRDGFIVGIHSQSNFTNTNNYFTSVPKNFMELLTNQEAQQWVSGWRLNADSVLWGGHKVFMVKPEEPFQPVKEATQL [A170Q],–,–,–,0.0495,–,–,–,–,0.0538,–
MGESLFKGPRDYNPISSSICHLTNESDGHTTSLYGIGFGPFIITNKHLFRRNNGTLVVQSLHGVFKVKDTTTLQQHLVDGRDMIIIRMPKDFPPFPQKLKFREPQREERICLVTTNFQTKSMSSMVSDTSITFPSGDGIFWKHWIQTKDGQCGSPLVSTRDGFIVGIHSASNFTNTNNYFTSVPKNFMELLTNQEAQQWVSGWRLNADSVLWGGHKVFMVKPEEPFQPVKEATQL [C131I],–,0.0644,0.0596,0.0739,0.0811,–,–,–,–,–
MGESLFKGPRDYNPISSSICHLTNESDGHTTSLYGIGFGPFIITNKHLFRRNNGTLVVQSLHGVFKVKDTTTLQQHLVDGRDMIIIRMPKDFPPFPQKLKFREPQREERICLVTTNFQTKSMSSMVSDTSCTFPSGDGIFWKHWIQTKDGQCGSPLVSTRDGFIVGIHSASNFENTNNYFTSVPKNFMELLTNQEAQQWVSGWRLNADSVLWGGHKVFMVKPEEPFQPVKEATQL [T174E],–,0.072,–,–,–,–,–,–,–,0.0057
MGESLFKGPRDYNPISSSICHLTNESDGHTTSLYGIGFGPFIITNKHLFRRNNGTLVVQSLHGVFKVKDTTTLQQHLVDGRDMIIIRMPKDFPPFPQKLKFREPQREERICLVTTNFQTKSMSSMVSDTSCTFPSGDGIFWKHWIQTKDGQCGSPLVSTRDGFIVGIHSASNFTNTNNYFTSVPKNFMELLTNQEAQQWVSGWRLNADSVLWGGSKVFMVKPEEPFQPVKEATQL [H215S],–,0.0504,0.0631,–,–,–,–,–,–,–
MGESLFKGPRDYNPISSSICHLTNESDGHTTSLYGIGFGPFIITNKHLFRRNNGTLVVQSLHGVFKVKDTTTLQQHLVDGRDMIIIRMPKDFPPFPYKLKFREPQREERICLVTTNFQTKSMSSMVSDTSCTFPSGDGIFWKHWIQTKDGQCGSPLVSTRDGFIVGIHSASNFTNTNNYFTSVPKNFMELLTNQEAQQWVSGWRLNADSVLWGGHKVFMVKPEEPFQPVKEATQL [Q97Y],–,–,0.0587,–,–,–,–,–,–,–
MGESLFKGPRDYNPISSSICHLTNESDGHTTSLYGIGFGPFIITNKHLFRRNNGTLVVQSLHGVFKVKDTTTLQQHLVDGRDMIIIRMPKDFPPFPQKLKFREPQREERICLVTTNFQTKSMSSMVSDTSCTFPSGDGIFWKHWIQTKDGQCGSPLVSTRDGFIVGIHSRSNFTNTNNYFTSVPKNFMELLTNQEAQQWVSGWRLNADSVLWGGHKVFMVKPEEPFQPVKEATQL [A170R],–,–,0.056,0.0568,–,–,–,–,–,0.0373
MGESLFKGPRDYNPISSSICHLTNESDGHTTSLYGIGFGPFIITNKHLFRRNNGTLVVQSLHGVFKVKDTTTLQQHLVDGRDMIIIRMPKDFPPFPQKLKFREPQREERICLVTTNFQTKSMSSMVSDTSCTFPSGDGIFWKHWIQTKDGQCGSPLVSTRDGFIVGIHSASNFFNTNNYFTSVPKNFMELLTNQEAQQWVSGWRLNADSVLWGGHKVFMVKPEEPFQPVKEATQL [T174F],–,–,0.0727,0.0727,–,–,0.0836,–,–,–
MGESLFKGPRDYNPISSSICHLTNESDGHTTSLYGIGFGPFIITNKHLFRRNNGTLVVQSLHGVFKVKDTTTLQQHLVDGRDMIIIRMPKDFPPFPQKLKFREPQREERICLVTTNFQTKSMSSMVSDTSCTFPSGDGIFWKHWIQTKDGQCGSPLVSTRDGFIVGIHSASNFTNTNNYFTSVPKNFMELLTNQEAQQWVSGWRLNADSVLNGGHKVFMVKPEEPFQPVKEATQL [W212N],–,–,0.0383,–,–,–,–,–,–,–
MGESLFKGPRDYNPISSSICHLTNESDGHTTSLYGIGFGPFIITNKHLFRRNNGTLVVQSLHGVFKVKDTTTLQQHLVQGRDMIIIRMPKDFPPFPQKLKFREPQREERICLVTTNFQTKSMSSMVSDTSCTFPSGDGIFWKHWIQTKDGQCGSPLVSTRDGFIVGIHSASNFTNTNNYFTSVPKNFMELLTNQEAQQWVSGWRLNADSVLWGGHKVFMVKPEEPFQPVKEATQL [D79Q],–,–,–,0.0854,–,–,–,–,–,–
MGESLFKGPRDYNPISSSICHLTNESDGHTTSLYGIGFGPFIITNKHLFRRNNGTLVVQSLHGVFKVKDTTTLQQHLVDGRDMIIIRMPKDFWPFPQKLKFREPQREERICLVTTNFQTKSMSSMVSDTSCTFPSGDGIFWKHWIQTKDGQCGSPLVSTRDGFIVGIHSASNFTNTNNYFTSVPKNFMELLTNQEAQQWVSGWRLNADSVLWGGHKVFMVKPEEPFQPVKEATQL [P93W],–,–,–,0.0608,–,–,–,–,–,–
MGESLFKGPRDYNPISSSICHLTNESDGHTTSLYGIGFGPFIITNKHLFRRNNGTLVVQSLHGVFKVKDTTTLQQHLVDGRDMIIIRMPKDFPPFPQKHKFREPQREERICLVTTNFQTKSMSSMVSDTSCTFPSGDGIFWKHWIQTKDGQCGSPLVSTRDGFIVGIHSASNFTNTNNYFTSVPKNFMELLTNQEAQQWVSGWRLNADSVLWGGHKVFMVKPEEPFQPVKEATQL [L99H],–,–,–,0.0468,–,–,–,–,–,–
MGESLFKGPRDYNPISSSICHLTNESDGHTTSLYGIGFGPFIITNKHLFRRNNGTLVVQSLHGVFKVKDTTTLQQHLVDGRDMIIIRMPKDFPPFPQKLKFREPQREERICLVTTNFQTKSMSSMVSDTSQTFPSGDGIFWKHWIQTKDGQCGSPLVSTRDGFIVGIHSASNFTNTNNYFTSVPKNFMELLTNQEAQQWVSGWRLNADSVLWGGHKVFMVKPEEPFQPVKEATQL [C131Q],–,–,–,0.0427,–,–,–,–,–,–
MGESLFKGPRDYNPISSSICHLTNESDGHTTSLYGIGFGPFIITNKHLFRRNNGTLVVQSLHGVFKVKDTTTLQQHLVDGRDMIIIRMPKDFPPFPQKLKFREPQREERICLVTTNFQTKSMSSMVSDTSCTFPSGDGIFWKHWIQSKDGQCGSPLVSTRDGFIVGIHSASNFTNTNNYFTSVPKNFMELLTNQEAQQWVSGWRLNADSVLWGGHKVFMVKPEEPFQPVKEATQL [T147S],–,–,–,0.0526,–,–,–,–,–,–
MGESLFKGPRDYNPISSSICHLTNESDGHTTSLYGIGFGPFIITNKHLFRRNNGTLVVQSLHGVFKVKDTTTLQQHLVDGRDMIIIRMPKDFPPFPQKLKFREPQREERICLVTTNFQTKSMSSMVSDTSCTFPSGDGIFWKHWIQTKDGQCGSPLVSTRDGFIVGIHSASNFTNTNNYFTSVPKNFMELLTNQEAQQWVSGWRLLADSVLWGGHKVFMVKPEEPFQPVKEATQL [N206L],–,–,–,0.0663,–,–,–,–,–,–
MGESLFKGPRDYNPISSSICHLTNESDGHTTSLYGIGFGPFIITNKHLFRRNNGTLVVQSLHGVFKVKDTTTLQQHLVDGRDMIIIRMPKDFPPFPQKLKFREPQREERICLVTTNFQTKSMSSMVSDTSCTFPSGDGIFWKHWIQTKDGQCGSPLVSTRDGFIVGIHSASNFTNTNNYFTSVPKNFMELLTNQEAQQWVSGWRLNADSVLWGGHKLFMVKPEEPFQPVKEATQL [V217L],–,–,–,0.0505,–,–,–,0.0694,–,–
